Results on 27 molecules are retold here after PubChem BioAssay AID1745853 (National Center for Advancing Translational Sciences (NCATS), 2022).

What all share (test): Primary Screen for Target Class Profiling of Small Molecule Inhibitors of Methyltransferases
The target in test [1] is Glycine N-methyltransferase (Homo sapiens) (UniProt Q14749). As to conditions: purified enzyme, MTase-Glo SAH luminescence; measured here: GNMT inhibition; at 40 µM; stronger effect = lower value. The method, boiled down: (§1)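 Each enzyme was reacted with SAM and its substrate, with compounds tested once at 40 uM; SAH formed was read by MTase-Glo luminescence.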
Test [2] concerns the target Guanidinoacetate N-methyltransferase (Homo sapiens) (UniProt Q14353). As to conditions: purified enzyme, MTase-Glo SAH luminescence; measured here: GAMT inhibition; at 40 µM; stronger effect = lower value. Put shortly: as §1
The target in test [3] is Histamine N-methyltransferase (Homo sapiens) (UniProt P50135). The note with it: purified enzyme, MTase-Glo SAH luminescence; measured here: HNMT inhibition; at 40 µM; stronger effect = lower value. Put shortly:
as §1

Test [4] addresses Nicotinamide N-methyltransferase (Homo sapiens) (UniProt P40261). The note with it: purified enzyme, MTase-Glo SAH luminescence; measured here: NNMT inhibition; at 40 µM; stronger effect = lower value. The method, boiled down: as §1
The target in test [5] is Phenylethanolamine N-methyltransferase (Homo sapiens) (UniProt P11086). As to conditions: purified enzyme, MTase-Glo SAH luminescence; measured here: PNMT inhibition; at 40 µM; stronger effect = lower value. The method, boiled down: as §1

This is one part of the list. These are further read-outs of the screen, such as a control signal, another cell line or another target. No call is given for them.
On the % scale 0 is the no-effect control and ±100 the full control effect.

Turning to `O=C(Nc1ccccc1)N1CCCC(C(=O)N2CCC(N3CCOCC3=O)CC2)C1` (stereo not given), the activity change, negative = inhibition was -4.56% in test [1]; -9.78% in test [2]; -3.07% in test [3]; -14.4% in test [4]; 8.52% in test [5].
Taken in the same sequence, the figures for `Cc1ccc(Cn2nc3n(CCC(C)C)c(=O)c4ccccc4n3c2=O)cc1` were 3.87%, 4.99%, 8.03%, -2.53% and 3.21%.
Taken in the same sequence, the figures for `COCCn1c(CN(C)Cc2sccc2C)cnc1S(=O)(=O)CC1CCCCC1` were -2.93%, 1.42%, -1.06%, -6.01% and 9.75%.
Taken in the same sequence, the figures for `NC1(c2ccc(NC(=O)c3ccnc(-c4cc(C(=O)O)ccn4)c3)cc2)CC1` were -7.86%, -6.76%, -17.1%, -13.9% and -2.52%.
`C[C@@H]1CCC2C(C)(C)[C@H](O)CC[C@]2(C)[C@@]12Cc1c(O)cc3c(c1O2)CNC3=O` (stereo not given in full): the activity change, negative = inhibition was 2.11% in test [1]; 1.3% in test [2]; 6.43% in test [3]; -15.8% in test [4]; -3.56% in test [5].
The matching figures for `C=C1C2CCC3C(CCC4[C@@]3(C)CCC[C@@]4(C)C(=O)O)(C2)[C@@H]1OC(=O)/C(C)=C\C` (stereo not given in full): -0.938%, -1.09%, 10.3%, -18.1% and -1.63%.
Taken in the same sequence, the figures for `CCC(C)NC(=O)CSc1nnc2n(CC(C)C)c(=O)c3ccccc3n12` (stereo not given) were -4.94%, -13.3%, 6.56%, -7.7% and -5.08%.
For `Cc1cnc(C(=O)N2C[C@H]3OC(=O)N(CCc4cccc(Cl)c4)[C@H]3C2)[nH]1`, the activity change, negative = inhibition in test [1] is -5.97%; in test [2], -11.5%; in test [3], -5.21%; in test [4], -17%; in test [5], -11.7%.
The matching figures for `Cn1c(=O)n(-c2ccc(C(C)(C)C#N)cc2)c2c3cc(C#Cc4cccnc4)ccc3ncc21`: 0.318%, 0.357%, 2.34%, -12% and -6.72%.
Taken in the same sequence, the figures for `O=C1CC(C(=O)O)C2(CCN(c3cc(C(=O)O)c4ccccc4n3)CC2)N1` (stereo not given) were -1.35%, -1.04%, 1.17%, 0.331% and -2.12%.
Taken in the same sequence, the figures for `C[C@@H]1O[C@@H](O[C@H]2[C@H](O[C@H]3[C@H](O[C@H]4CC[C@@]5(C)C(CC[C@]6(C)C5CC=C5[C@@H]7CC(C)(C)C[C@@H](O)[C@]7(C)CC[C@]56C)[C@@]4(C)CO)O[C@H](C(=O)O)[C@@H](O)[C@@H]3O)O[C@H](CO)[C@H](O)[C@@H]2O)[C@H](O)[C@H](O)[C@H]1O` (stereo not given in full) were 0%, 6.89%, 5.75%, -16.8% and 9.42%.
On to `O=C(CCCc1nnc2n3nc(-c4ccccc4)nc3c3ccccc3n12)N1CCN(c2ccccc2)CC1`, for which the activity change, negative = inhibition in test [1] is -7.23%; in test [2], 1.8%; in test [3] it was 8.43%; in test [4], 12.3%; in test [5] it was 1.15%.
Consider `CCCC1c2ccc(C)n2CCN1C(=O)NCc1cccc(OC)c1` (stereo not given), for which the activity change, negative = inhibition is -10.3% in test [1]; 2.75% in test [2]; -7.99% in test [3]; -7.95% in test [4]; -10.3% in test [5].
Turning to `COc1ccccc1Nc1ncc2c(n1)CN(C(=O)c1cc3ccccc3n1C)CCN2`, the activity change, negative = inhibition in test [1] was -8.18%; in test [2] it was -6.43%; in test [3], -2.89%; in test [4], -12.4%; in test [5] it was -6.89%.
Take `CC(C)c1noc(CC2CCN(C(=O)c3cc4ccccc4[nH]3)CC2)n1`: the activity change, negative = inhibition is -0.762% in test [1]; -6.41% in test [2]; 2.83% in test [3]; -2.23% in test [4]; -2.48% in test [5].
The matching figures for `C[C@@H](NC(=O)C1=C[C@@H](NS(=O)(=O)c2cccc(C(F)(F)F)c2)[C@@H](O)[C@H](O)C1)C(N)=O`: -0.343%, 0.955%, 1.48%, 0.222% and -20.4%.
`CC(C)OCCCn1c(=O)c2ccccc2n2c(SCC(=O)Nc3cc(F)ccc3F)nnc12`: the activity change, negative = inhibition in test [1] was -7.1%; in test [2], 4.79%; in test [3], -0.297%; in test [4] it was -8.2%; in test [5] it was -2.73%.
Regarding `Cc1cc(F)ccc1[C@H]1C[C@@H](N2CCN3C(=O)CC[C@H]3C2)CCN1C(=O)N(C)[C@H](C)c1cc(C(F)(F)F)cc(C(F)(F)F)c1`, the activity change, negative = inhibition is 1.48% in test [1]; 23.7% in test [2]; 8.73% in test [3]; 3.22% in test [4]; 9.83% in test [5].
On to `CCOC(=O)c1cc2n(n1)CC(C)(C(=O)NCCCOC(C)C)N(c1cccc(CC)c1)C2=O` (stereo not given), for which the activity change, negative = inhibition worked out at 3.57% in test [1]; 4.65% in test [2]; 6.48% in test [3]; 3.29% in test [4]; 1.49% in test [5].
Taken in the same sequence, the figures for `COc1ccc(CNC(=O)c2cc3c(s2)CN(C2CC2)C3)cc1OC` were -26.3%, -3.08%, -6.11%, -7.06% and -8.27%.
The matching figures for `O=C(CCc1nnc2n(CCc3ccccc3)c(=O)c3ccccc3n12)NCCc1ccccc1`: -14.7%, 1.61%, 1.32%, -15.7% and -9.13%.
The matching figures for `C=CC(C)(O)CC/C=C(\C)C(=O)O[C@@H]1[C@@H](O)[C@H](OC(C)(C=C)CC/C=C(\C)C(=O)O[C@@H]2O[C@H](CO)[C@@H](O)[C@H](O)[C@H]2O)O[C@H](CO)[C@H]1OC(=O)/C(C)=C/CCC(C)(O)C=C` (stereo not given in full): 0%, 6.79%, 6.9%, -8.35% and 7.32%.
Regarding `COc1cccc(CN2C(=O)c3nc4ccccc4n3CC2(C)C(=O)NC2CCCCC2C)c1OC` (stereo not given), the activity change, negative = inhibition in test [1] was 1.16%; in test [2], 0%; in test [3], 4.1%; in test [4], 4.88%; in test [5], -1.38%.
Taken in the same sequence, the figures for `C=C1CC[C@]2(C(=O)O[C@@H]3O[C@H](CO)[C@@H](O)[C@H](O)[C@H]3O)CC[C@]3(C)C(=CCC4[C@@]5(C)C[C@H](O)[C@@H](O[C@@H]6O[C@H](C(=O)O)[C@@H](O)[C@H](O)[C@H]6O)[C@](C)(C=O)C5CC[C@]43C)C2C1` (stereo not given in full) were 7.6%, 0.878%, 11%, -13.5% and 6.83%.
Taken in the same sequence, the figures for `Nc1ccn([C@@H]2O[C@H](CO)[C@@H](O)[C@@H]2O)c(=O)n1` were -7.7%, 4.99%, -0.568%, -6.93% and 3.98%.
As to `Nc1ncnc2c1ncn2C1CCCO1` (stereo not given), the activity change, negative = inhibition is -12.1% in test [1]; -3.27% in test [2]; -3.74% in test [3]; -14% in test [4]; -3.63% in test [5].
The matching figures for `Cc1cccc(-c2n[nH]n3c2nc(=O)c2ccc(C(=O)N4CCN(c5cc(C)ccc5C)CC4)cc23)c1`: -18.6%, 0%, -4.22%, -11.2% and -6.37%.
